B1: LINE1-mini (parent)
chain: GGCAGAGCUCAACACAGCGUGGCAAAGUGGCUGUGGCUAGACUGCC

Here are results for 167 variants from the RNAGym collection of RNA variant scans (doi:10.7554/elife.90254).

Read counts are not given, so values of variants with three or more changes are uncertain.

In this series the parent is B1. Description: self-cleavage, relative activity (ratio to wild type); higher = more cleavage; in vitro, sequencing; the parent is a self-cleaving ribozyme.
As to A6C C8A G44U C45A, the self-cleavage was determined as 0.62. With G5U G22U G35U, the self-cleavage was determined as 0.38. For the variant A6C C8G U9A A11G G21U, the self-cleavage was found to be 0.01. In the case of G5U U9G C18U U28A it was 0.06. A6C C10A G17A G40A: the self-cleavage came to 0.02. For G5U G7U C8U G17U C31G, the self-cleavage was 0.2.

G5U U9C C31U U34C C46U: the self-cleavage came to 0.08. For G5U G22U G29U G44A, the self-cleavage came to 0.06.

Turning to A6C C8U C10U A26U G27U G29A U32G U38G U43A, the self-cleavage was 0.02. For the variant G5U G30A C31A, the self-cleavage was 0.04. To G5U G7C A14U A26U G30U G33A belongs 0.07; to A6C C8U A26G, 0.48.

In the case of G5U G21C G27A C42A G44U, the self-cleavage amounted to 0.07. Take G5U U9A C13G: the self-cleavage came out at 0.11.

Regarding G5U G19A G33U C42A, the self-cleavage stood at 0.02. G5U U34G C42A C45U: the self-cleavage was determined as 0.

With A6C A12U G27C G30U G36C A39G, the self-cleavage was found to be 0.04. With G5U U9G C10G U28C U38C, the self-cleavage is 0.

As to A6C C8G G17A C18G C45A, the self-cleavage was 0.02.

On to G5U G29A G33U U34G, for which the self-cleavage was 0.04. With A6C C8A U9A U43C, the self-cleavage amounted to 0.05. To G5U G30U G40C belongs 0.03. On to G5U U28A G35A C45G, for which the self-cleavage was 0.09. With G5U U20C C31U U32G, the self-cleavage came out at 0.02. To G5U G21U U34C G40C C45U belongs 0; to A6C A25G U28G, 0.06; to A6C C8G C13U C42G, 0. On to G5U G19U G29U U38C, for which the self-cleavage worked out at 0.02. With A6C A16U C37U A41U C42A, the self-cleavage was determined as 0.02. In the case of A6C C8G A14G U28G, the self-cleavage turned out to be 0.02.

For the variant A6C A25C C31A, the self-cleavage came out at 0.05.

For the variant A6C A11G C18G C23G G36A, the self-cleavage amounted to 0. For the variant G5U U9G A16C, the self-cleavage came to 0.03.

A6C A26G G40C: the self-cleavage was 0.14. In the case of G5U U34G A39G C42G G44U, the self-cleavage came out at 0.02. For the variant G5U U28C U43A, the self-cleavage was 0.09. For G5U G7U A11C C15U A16C C42U, the self-cleavage is 0.02. For the variant A6C A12U G22A G44U, the self-cleavage was 0.03. For G5U G7U G44C, the self-cleavage came to 0.16. For G5U U9G A39U, the self-cleavage came to 0.16. As to A6C C10A C18G G36U C46U, the self-cleavage stood at 0.03. As to G5U G29A U32A G33U C42G, the self-cleavage was found to be 0.01. In the case of G5U U32C C42A it was 0.03; in that of G5U G19U A25U G27U C31A U32G C42U G44A, 0.01; in that of G5U G17C G27U C42U C45U, 0.06.

Consider G5U G21U G29C A39G, for which the self-cleavage was 0.02. For A6C A24C G29U, the self-cleavage was determined as 1.74. Regarding A6C C10G A12C C15G A16C G19A A41U, the self-cleavage amounted to 0.01. In the case of G5U G29A U34A it was 0.09; in that of G5U U9A C42U, 0.18.

With G5U G19C G35A, the self-cleavage was 0.04.

Take G5U G27A G30A C46A: the self-cleavage turned out to be 0.09. For the variant A6C A14G A25C G27U G30U G40A, the self-cleavage turned out to be 0.04. On to G5U U34C C46U, for which the self-cleavage stood at 0.03. A6C A12G A25U U38A: the self-cleavage is 0.03. On to A6C A16C C37A, for which the self-cleavage stood at 0.01. For G5U G19C G33C U43C, the self-cleavage is 0.02. As for G5U G7U A16G G40U C46A, the self-cleavage worked out at 0.02. For the variant G5U G17A G29C G35C, the self-cleavage turned out to be 0.01. For the variant A6C C8G U9C G22C, the self-cleavage was found to be 0.01. Regarding G5U G17U U20A U32A, the self-cleavage was found to be 0.05. For G5U U34A G40C, the self-cleavage was determined as 0.04. As for G5U G21U G44U, the self-cleavage worked out at 0.09. Turning to G5U G21U A41U, the self-cleavage amounted to 0.04.

For the variant G5U G7C G36C, the self-cleavage was 0.1.

As to G5U U9C A24G, the self-cleavage is 0.02. Take G5U G7A G30A: the self-cleavage worked out at 0.2. In the case of G5U G36A C45U it was 0.08; in that of A6C C10A C18A G22U, 0.02; in that of A6C A14U C15G G22U C23U G30A, 0.03. In the case of G5U U20C G21C, the self-cleavage was found to be 0.04.

On to G5U U32G C42G, for which the self-cleavage was determined as 0.

Consider A6C A11G U20G G29C, for which the self-cleavage is 0.03. With G5U G19A U32C A39G, the self-cleavage amounted to 0.04.

On to G5U U28C G33C, for which the self-cleavage worked out at 0.01. With G5U G22C C23A, the self-cleavage worked out at 1.39.

For G5U U20G G22U A24G G36U, the self-cleavage came out at 0.01. On to A6C A14C G29U C42G C45A, for which the self-cleavage amounted to 0.

Consider G5U G22C G27A G36A, for which the self-cleavage amounted to 0.04. As to A6C A11C G30C C31A, the self-cleavage came out at 0.02. For the variant G5U G33U U38G, the self-cleavage is 0.01. For A6C C8A C10G G29A G30A, the self-cleavage amounted to 0.02. A6C A12U A14G C15U U38A A41G G44C: the self-cleavage was determined as 0.01. Regarding A6C A14C A26G, the self-cleavage stood at 0.16.

G5U G19A G30A A41G C45A: the self-cleavage is 0.08. To G5U U32G G40A belongs 0.02. Take A6C A16U G33A: the self-cleavage turned out to be 0.02. In the case of G5U G19C C45G it was 0.03. As for G5U G22A G35U, the self-cleavage is 0.07. As to G5U G19C G33A, the self-cleavage stood at 0.01.

On to A6C C8A G17A C23A G27A G30A U32G C45A, for which the self-cleavage was found to be 0.03. As to A6C A14C A24U, the self-cleavage amounted to 0.14. G5U G19A U20G A25U: the self-cleavage came out at 0.02. In the case of A6C A12C U28A C31A G40C, the self-cleavage is 0.02. For A6C A16G G22U G29U G36U, the self-cleavage is 0.05. In the case of A6C C8G G19A, the self-cleavage worked out at 0.05.

In the case of G5U U28C C31G, the self-cleavage is 0.02.

Consider G5U G17A A24C A25C G36C, for which the self-cleavage is 0.02.

On to G5U U20G G21U U28A, for which the self-cleavage turned out to be 0.01.

With G5U G19C C37G U38A, the self-cleavage was determined as 0.02.

As for G5U G27U C31U, the self-cleavage is 0.01. For A6C A16C C18U, the self-cleavage worked out at 0.03. A6C A25U G29U C31U G33C: the self-cleavage was determined as 0.02. G5U G22U G40U: the self-cleavage is 0.04. In the case of G5U G19U G27A A39C it was 0.02; in that of G5U U28C G44U, 0.04. Turning to A6C C8A C31G U34G, the self-cleavage came to 0.17.

Take G5U U9C A39C: the self-cleavage was determined as 0.03. In the case of G5U G17C G29U, the self-cleavage worked out at 0.09.

Take G5U U9G C10U G22C U28G: the self-cleavage is 0.04. Take G5U G30C A41U: the self-cleavage came to 0.03. On to A6C A25G G30A C45A, for which the self-cleavage was determined as 0.04. In the case of A6C C8A A39C it was 0.15; in that of A6C C10A A16G G30A U34A, 0.03; in that of G5U G22C U32A, 0. G5U G29U G35A: the self-cleavage came out at 0.1.

With A6C C8G G19A U28A G30A, the self-cleavage turned out to be 0.04. In the case of G5U G17A C31A, the self-cleavage came out at 0.03. Consider G5U G17A C31U, for which the self-cleavage was determined as 0.05. In the case of G5U G21C U43G, the self-cleavage is 0.05. In the case of G5U G17C G29U G30U G44A it was 0.01; in that of G5U U9A G27U G36C, 0.02; in that of G5U G22C C45A, 0.03. Turning to G5U U20C A25G C46U, the self-cleavage came out at 0.06. Turning to G5U U38C G40U, the self-cleavage is 0.07.

In the case of G5U G21U C31A, the self-cleavage is 0.01. G5U G36C C45G: the self-cleavage came out at 0.06. Turning to G5U G7C C31G, the self-cleavage turned out to be 0.01. For the variant G5U G7C G22U A24C G30C C46A, the self-cleavage amounted to 0.04.

Turning to A6C C10A C18A, the self-cleavage worked out at 0.03. Turning to A6C A12C G17C, the self-cleavage is 0.02.

As to A6C C8G U9A C10G, the self-cleavage is 0.05. Regarding A6C C8U C13G C15U U32A, the self-cleavage is 0.07. A6C A16G A25G G35U: the self-cleavage was 0.

Regarding A6C A11G C23U C45U C46U, the self-cleavage amounted to 0.02. Regarding G5U G27U G40U, the self-cleavage is 0.04. As for G5U G36C G40U, the self-cleavage was 0.05.

Take A6C A16G G17U G44U: the self-cleavage came to 0.08.

Take G5U G30U U32C: the self-cleavage was 0.02. Take A6C A12U C37A A41C C42A: the self-cleavage stood at 0.01. On to G5U U28A G44U C45A, for which the self-cleavage came out at 0.25.

As to A6C A12C C23G, the self-cleavage is 0.14.

Take A6C A14U A16C G29C: the self-cleavage amounted to 0.12.

In the case of A6C A12U U28A, the self-cleavage turned out to be 0.08. Consider G5U G17U C37U, for which the self-cleavage was 0.09. With G5U U9A G17U, the self-cleavage was determined as 0.08.

For the variant A6C A39U C42A, the self-cleavage was determined as 0.06. As to G5U G21A G30U U34C U38A G40U C46A, the self-cleavage was found to be 0.04. Consider G5U G40C C42U, for which the self-cleavage was 0.03. With G5U G17U C37U C46A, the self-cleavage came to 0.01. For the variant G5U U20A G21U G35U, the self-cleavage came to 0.06.

On to G5U U28C G36U, for which the self-cleavage was 0.07.

Take G5U G7U C8A A14U C31A: the self-cleavage was 0.05.

Consider G5U G7U G27A G36A, for which the self-cleavage amounted to 0.81. In the case of G5U G19U G30U C42A, the self-cleavage is 0.1. In the case of G5U G19C C42U it was 0.07; in that of A6C A12C C15U G17A, 0.05. Take G5U G29A U34A G40U C42G: the self-cleavage was determined as 0.06. With G5U U20G G29C G40A, the self-cleavage worked out at 0. As to G5U U9C C13U C15U, the self-cleavage is 0.02.

Regarding G5U U38G C42A C46U, the self-cleavage is 0. Take G5U U9C G21U C37U A39G: the self-cleavage amounted to 0.02. As for A6C A16U G29A G33U, the self-cleavage was determined as 0.04. As for G5U G17C A24C G30C C37U U43A, the self-cleavage is 0.07. For A6C A14U C15A G27C G30C, the self-cleavage was found to be 0.09. Take A6C A12U C13U C23A G35U: the self-cleavage came to 0.13. As for G5U G19U C31A C45G, the self-cleavage stood at 0.04.
